Reference: the supplement of paper PMC10369915
Some of the results follow. Cut-off read from the data, not from the text of the source: active = 3.2 or more and inactive = the rest. Most of these values are background signal.

What follows are binders tested against SHP2 C-SH2 domain E139D (assay: enrichment score (SH2-bound / input frequency) (ratio); bacterial display of known human phosphotyrosine sites (pTyr-Var adds point mutants) read by sequencing; higher = stronger binding; tyrosines were phosphorylated by kinases first). Conditions: peptide library: Human pTyr.
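Note: displayed peptides selected on beads carrying the immobilized SH2 domain, with library peptides lacking any tyrosine serving as negative controls.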

Enrichment score, inactive:
VTQVSSAYQKTVPVE [CTTN_HUMAN_334] 0.798
VLQQVGDYCFLPGLG [CSF2RB_HUMAN_822] 1.33
SSQGVDTYVEMRPVS [CSF1R_HUMAN_723] 0.599
EDVEDPVYQYIVFEA [DAB1_HUMAN_198] 1.75
TERSDLEYQLENIQV [CTRO_HUMAN_1196] 0.974
AFASVRAYNTAGTGP [CNTN6_HUMAN_882_YA] 0.509
NIMRTATYEKLLWTT [CTNB1_HUMAN_333_YA] 1.02
NIHLEKKYVRRDSGF [CSF1R_HUMAN_708] 1.07
GERQLACYEVVPQQP [CORO7_HUMAN_288_YA] 1.07
NIMRTYTYEKLLWTT [CTNB1_HUMAN_333] 1.97
KVMENFIYESMRAQP [CYP19A1_HUMAN_361_YA] 0.756
YFASVRAYNTAGTGP [CNTN6_HUMAN_882] 0.477
KGHSDDDYDDPELRM [CLNK_HUMAN_69] 0.992
EENDDDAYLNSPWAD [CU059_HUMAN_264] 1.24
SPLTTGVYVKMPPTE [CTLA4_HUMAN_201] 0.747
DGCPPAVYEVMKNCW [CSK_HUMAN_416] 0.592
DTDYRHSYEYQRENS [CLK2_HUMAN_99] 0.642
EAPGEQLYQQSRAYV [CS025_HUMAN_63] 0.702

The binders below were run against SHP2 C-SH2 domain wild-type in the same assay as above. Conditions: peptide library: Human pTyr.

Enrichment score, inactive:
VTQVSSAYQKTVPVE [CTTN_HUMAN_334] 0.644
VLQQVGDYCFLPGLG [CSF2RB_HUMAN_822] 1.61
SSQGVDTYVEMRPVS [CSF1R_HUMAN_723] 0.531
EDVEDPVYQYIVFEA [DAB1_HUMAN_198] 1.55
TERSDLEYQLENIQV [CTRO_HUMAN_1196] 1.12
AFASVRAYNTAGTGP [CNTN6_HUMAN_882_YA] 0.438
NIMRTATYEKLLWTT [CTNB1_HUMAN_333_YA] 1.1
NIHLEKKYVRRDSGF [CSF1R_HUMAN_708] 1.01
GERQLACYEVVPQQP [CORO7_HUMAN_288_YA] 1.12
NIMRTYTYEKLLWTT [CTNB1_HUMAN_333] 2.43
KVMENFIYESMRAQP [CYP19A1_HUMAN_361_YA] 0.795
YFASVRAYNTAGTGP [CNTN6_HUMAN_882] 0.446
KGHSDDDYDDPELRM [CLNK_HUMAN_69] 0.907
EENDDDAYLNSPWAD [CU059_HUMAN_264] 0.969
SPLTTGVYVKMPPTE [CTLA4_HUMAN_201] 0.714
DGCPPAVYEVMKNCW [CSK_HUMAN_416] 0.644
DTDYRHSYEYQRENS [CLK2_HUMAN_99] 0.588
EAPGEQLYQQSRAYV [CS025_HUMAN_63] 0.46

These binders were tested against SHP2 N-SH2 domain L43F in the same assay as above. Conditions: peptide library: Human pTyr.

Enrichment score, active:
NIMRTYTYEKLLWTT [CTNB1_HUMAN_333] 6.33

Enrichment score, inactive:
VTQVSSAYQKTVPVE [CTTN_HUMAN_334] 0.739
VLQQVGDYCFLPGLG [CSF2RB_HUMAN_822] 1.17
SSQGVDTYVEMRPVS [CSF1R_HUMAN_723] 0.793
EDVEDPVYQYIVFEA [DAB1_HUMAN_198] 1.68
TERSDLEYQLENIQV [CTRO_HUMAN_1196] 0.973
AFASVRAYNTAGTGP [CNTN6_HUMAN_882_YA] 0.567
NIMRTATYEKLLWTT [CTNB1_HUMAN_333_YA] 2.82
NIHLEKKYVRRDSGF [CSF1R_HUMAN_708] 1.22
GERQLACYEVVPQQP [CORO7_HUMAN_288_YA] 1
KVMENFIYESMRAQP [CYP19A1_HUMAN_361_YA] 0.848
YFASVRAYNTAGTGP [CNTN6_HUMAN_882] 0.559
KGHSDDDYDDPELRM [CLNK_HUMAN_69] 0.777
EENDDDAYLNSPWAD [CU059_HUMAN_264] 1.02
SPLTTGVYVKMPPTE [CTLA4_HUMAN_201] 0.652
DGCPPAVYEVMKNCW [CSK_HUMAN_416] 0.793
DTDYRHSYEYQRENS [CLK2_HUMAN_99] 0.772
EAPGEQLYQQSRAYV [CS025_HUMAN_63] 0.531

These binders were tested against SHP2 N-SH2 domain T42A in the same assay as above. Conditions: peptide library: Human pTyr.

Enrichment score, inactive:
VTQVSSAYQKTVPVE [CTTN_HUMAN_334] 0.624
VLQQVGDYCFLPGLG [CSF2RB_HUMAN_822] 1.19
SSQGVDTYVEMRPVS [CSF1R_HUMAN_723] 0.529
EDVEDPVYQYIVFEA [DAB1_HUMAN_198] 1.55
TERSDLEYQLENIQV [CTRO_HUMAN_1196] 1.04
AFASVRAYNTAGTGP [CNTN6_HUMAN_882_YA] 0.436
NIHLEKKYVRRDSGF [CSF1R_HUMAN_708] 0.972
GERQLACYEVVPQQP [CORO7_HUMAN_288_YA] 1.26
KVMENFIYESMRAQP [CYP19A1_HUMAN_361_YA] 0.897
YFASVRAYNTAGTGP [CNTN6_HUMAN_882] 0.456
KGHSDDDYDDPELRM [CLNK_HUMAN_69] 0.863
EENDDDAYLNSPWAD [CU059_HUMAN_264] 1.13
SPLTTGVYVKMPPTE [CTLA4_HUMAN_201] 0.476
DGCPPAVYEVMKNCW [CSK_HUMAN_416] 0.62
DTDYRHSYEYQRENS [CLK2_HUMAN_99] 0.522
EAPGEQLYQQSRAYV [CS025_HUMAN_63] 0.601

Enrichment score, active:
NIMRTATYEKLLWTT [CTNB1_HUMAN_333_YA] 4.08
NIMRTYTYEKLLWTT [CTNB1_HUMAN_333] 11.9

Each binder was assayed against SHP2 N-SH2 domain T52S in the same assay as above. Conditions: peptide library: Human pTyr.

Enrichment score, inactive:
VTQVSSAYQKTVPVE [CTTN_HUMAN_334] 0.713
VLQQVGDYCFLPGLG [CSF2RB_HUMAN_822] 1.27
SSQGVDTYVEMRPVS [CSF1R_HUMAN_723] 0.523
EDVEDPVYQYIVFEA [DAB1_HUMAN_198] 1.65
TERSDLEYQLENIQV [CTRO_HUMAN_1196] 0.974
AFASVRAYNTAGTGP [CNTN6_HUMAN_882_YA] 0.597
NIMRTATYEKLLWTT [CTNB1_HUMAN_333_YA] 2.28
NIHLEKKYVRRDSGF [CSF1R_HUMAN_708] 1.65
GERQLACYEVVPQQP [CORO7_HUMAN_288_YA] 1.34
KVMENFIYESMRAQP [CYP19A1_HUMAN_361_YA] 0.87
YFASVRAYNTAGTGP [CNTN6_HUMAN_882] 0.497
KGHSDDDYDDPELRM [CLNK_HUMAN_69] 0.845
EENDDDAYLNSPWAD [CU059_HUMAN_264] 1.03
SPLTTGVYVKMPPTE [CTLA4_HUMAN_201] 0.898
DGCPPAVYEVMKNCW [CSK_HUMAN_416] 0.662
DTDYRHSYEYQRENS [CLK2_HUMAN_99] 0.624
EAPGEQLYQQSRAYV [CS025_HUMAN_63] 0.712

Enrichment score, active:
NIMRTYTYEKLLWTT [CTNB1_HUMAN_333] 4.28

The binders below were run against SHP2 N-SH2 domain wild-type in the same assay as above. Conditions: peptide library: Human pTyr.

Enrichment score, inactive:
VTQVSSAYQKTVPVE [CTTN_HUMAN_334] 0.752
VLQQVGDYCFLPGLG [CSF2RB_HUMAN_822] 1.58
SSQGVDTYVEMRPVS [CSF1R_HUMAN_723] 0.686
EDVEDPVYQYIVFEA [DAB1_HUMAN_198] 1.95
TERSDLEYQLENIQV [CTRO_HUMAN_1196] 0.717
AFASVRAYNTAGTGP [CNTN6_HUMAN_882_YA] 0.388
NIMRTATYEKLLWTT [CTNB1_HUMAN_333_YA] 0.9
NIHLEKKYVRRDSGF [CSF1R_HUMAN_708] 1.18
GERQLACYEVVPQQP [CORO7_HUMAN_288_YA] 1.44
NIMRTYTYEKLLWTT [CTNB1_HUMAN_333] 2.37
KVMENFIYESMRAQP [CYP19A1_HUMAN_361_YA] 1.36
YFASVRAYNTAGTGP [CNTN6_HUMAN_882] 0.567
KGHSDDDYDDPELRM [CLNK_HUMAN_69] 0.943
EENDDDAYLNSPWAD [CU059_HUMAN_264] 0.969
SPLTTGVYVKMPPTE [CTLA4_HUMAN_201] 0.737
DGCPPAVYEVMKNCW [CSK_HUMAN_416] 0.655
DTDYRHSYEYQRENS [CLK2_HUMAN_99] 0.566
EAPGEQLYQQSRAYV [CS025_HUMAN_63] 0.629
